Among all 48,000 compounds or so, about 120 (0.25%) were called active. Another 4% or so got no clear call; they are omitted. The call rests on the fitted dose curve; in most records, active means well fitted activation curve with a large enough effect; inconclusive means small, poorly fitted or top-dose-only effect, or another doubt; inactive means no such curve, though single readings can be large or run the other way. The list shows a part of the results.
Assay: Primary qHTS for Identification of Small Molecule Activators of Huntingtin-Antisense Promoter Activity; further: nearly all actives have a fitted effect of over 55% in size
Settings: HEK293 HTT-AS promoter firefly luciferase reporter (activity 0% = vehicle and -100% = no light), 24 h; series mostly up to 57.5 µM; activity change, positive = activation: at the top concentration
Method in brief: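 HEK293 Fluc reporter, 2,500 cells/well, 24 h pre-culture; cpds up to 57.5 uM final, 24 h 37 degrees C; Dual-Glo, 10 min RT; normalized vehicle = 0%, zero RLU = -100%.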

Activity change, positive = activation, inactive:
CCN1CCN(CCCNC(=O)c2cnn(-c3ccccc3Cl)c2C2CCN(C(=O)OC(C)(C)C)CC2)CC1 -13.1%
CCOC(=O)C1CCCN(c2c(C(=O)c3ccc(OCC)cc3)cnc3ccccc23)C1 (configuration not stated) -22.9%
CC(C)CN(CCCNC(=O)c1cc(-c2cccs2)nc2ccccc12)CC(C)C -15.3%
Cc1nn(C)c2c1c(-c1ccccc1)cc(=O)n2Cc1ccccc1C#N -33.1%
Cc1cc(F)ccc1NC(=O)C1CCN(C(=O)c2cnn(-c3ccccc3)c2-n2cccc2)CC1 -19.7%
CCCCCCCCCCCCCC(=O)N[C@H](CO)[C@H](O)c1ccc([N+](=O)[O-])cc1 0.538%
O=C(CCC1N=C2c3ccccc3N=C(SCc3cccc(F)c3)N2C1=O)NCCc1ccccc1 (configuration not stated) -28.5%
O=C(c1ccccc1)c1cn(Cc2ccc(F)cc2)c2ccccc2c1=O -26.7%
CCCCc1nn2c(=O)cc(COC(=O)c3cccc(Cl)c3)nc2s1 -4.92%
Cc1cccc(C)c1NC(=O)Cn1nnc(C(=O)Nc2c(C)cccc2C)c1N -20.9%
CCCSc1nc(-c2ccc(OC)cc2)cc(-c2ccccc2OC)c1C#N 2.02%
Cc1cccc(C)c1NC(=O)CN(Cc1ccc(Br)cc1)S(=O)(=O)c1ccccc1 -35.6%
COc1ccc(Br)cc1CNC(=O)c1cc(=O)[nH]c2ccc(S(=O)(=O)N3CCCCC3)cc12 -12%
COc1ccc(Cl)cc1Nc1cc(C)nc2nc(-c3ccccc3C)nn12 -1.58%
CN(C)c1ccc(C(CNC(=O)c2cccc(C(F)(F)F)c2)N2CCCC2)cc1 (configuration not stated) -22.6%
CCOc1ccc(NC(=O)C2CCN(S(=O)(=O)c3c(C)noc3/C=C/c3c(C)cc(C)cc3C)CC2)cc1 10.6%
CCCCCCCC/C=C\CCCCCCCCN -6.59%
CN(C)[C@@H](CCOc1cccc2ccccc12)c1ccccc1
CCCC(=O)Nc1cccc(-c2cn3cccnc3n2)c1 35.1%
Cc1ccc(CNc2ncnc3c2c(-c2ccccc2)cn3-c2ccccc2)cc1 -14%
CCOC(=O)c1ccc(NS(=O)(=O)c2ccc3c(c2)OCCO3)cc1 -34.3%
O=C(Nc1ccc(Cl)c(C(F)(F)F)c1)c1ccc2c(c1)CCN2S(=O)(=O)c1ccccc1 -44.8%
COc1ccc(NC(=O)CN2C(=O)CSc3ccc(S(=O)(=O)N(C)C)cc32)cc1Cl -17%
Cc1ccccc1Cn1nnc2c(=O)[nH]c(C3CCN(C(=O)c4ccccc4Cl)CC3)nc21 -16.4%
COc1ccc(NC(=O)C2CCN(C(=O)N3CCOc4ccccc43)CC2)cc1 -12.3%
Cc1ccc2occ(CC(=O)Nc3ccc(S(=O)(=O)N4CCCC(C)C4)cc3)c2c1 (configuration not stated) -18.9%
Cc1ccc(-n2ncc(C(=O)NCc3ccccn3)c2C2CCN(C(=O)OC(C)(C)C)CC2)c(C)c1 -15.6%
COc1ccc(CNC(=O)CCCn2c(=O)c3cccn3c3ccc(F)cc32)cc1OC -5.39%
COc1ccc(-c2noc(N3CCC(C(=O)Nc4ccc(OC)c(OC)c4)CC3)n2)cc1 -70.9%
O=c1c2cc3c(cc2n(Cc2ccccc2)c(=O)n1Cc1nc(-c2ccccc2)no1)OCO3 -11.1%
COc1ccc(NC(=O)N2CCN(S(=O)(=O)c3ccc4c(ccn4C)c3)CC2)cc1OC -2.47%
CCC1CN(C(=O)NCc2ccccc2)c2cc(C)ccc2O1 (configuration not stated) -17.8%
COCCCNC(=O)C(C)n1c2ccccc2c2cnn(C)c(=O)c21 (configuration not stated) -9.49%
Cc1ccc(NC(=O)Cn2c(=O)ccc3cc(S(=O)(=O)N4CCC(C)CC4)ccc32)c(C)c1 -37.9%
CCOC(=O)c1cc2c(=O)n3ccccc3nc2n(C)c1=NC(=O)c1c(-c2ccccc2Cl)noc1C 6.5%
COc1ccc(-n2cc(C(=O)Nc3cc(F)ccc3F)c3ccccc3c2=O)cc1 -22.7%
O=C(Nc1ccc(F)cc1F)c1ccc2c(c1)CCN2S(=O)(=O)c1ccc(Cl)cc1 -12%
CCOc1ccc(CNC(=O)Cn2ccc3cc(S(=O)(=O)N4CCCCCC4)ccc32)cc1 -23.5%
CCCCOC(=O)c1ccc(NC(=O)CC2NCCNC2=O)cc1 (configuration not stated) 3.22%
COCCCNC(=O)C1CCC(CNS(=O)(=O)c2ccc(OC)cc2)CC1 (configuration not stated) -6.83%
COc1cccc(CNC(=O)C2CCN(Cc3cc4ccccc4n3Cc3ccc(C)cc3)CC2)c1 -23.7%
COc1cc(-c2cc3n(C)c(C)c(CCC(=O)NCc4ccccc4)c(=O)n3n2)cc(OC)c1OC -2.45%
CCCC(CCC)C(=O)O
COc1ccc(OC)c(CCNC(=O)Cn2ccc3cc(S(=O)(=O)N4CCCCC4)ccc32)c1 -31.4%
CCN(CC)c1ccc(NC(=O)c2sc3ccccc3c2Cl)cc1 22%
CC(C)[N+](C)(C)CC(O)COc1cccc2ccccc12 (configuration not stated) -12.9%
COc1ccc(OC)c(-c2noc(N3CCN(c4cc(C)ccc4C)CC3)n2)c1 -39.7%
CCCn1c(=N)c(C(=O)NCc2cccnc2)cc2c(=O)n3ccccc3nc21 -2.5%
COc1ccc(NC(=O)C(Cc2ccccc2)NS(=O)(=O)c2ccc3c(c2)CCN3C(C)=O)cc1 (configuration not stated) 17.1%
CCOC(=O)c1cc(OC(=O)c2ccc(OC)cc2)n(-c2ccccc2)n1 -8.7%
Cc1ccc(C)c(CNC(=O)c2ccc3c(c2)nc2n3CCC(C)C2)c1 (configuration not stated) 19.1%
COc1ccccc1-c1cc2nc(C)c(CCC(=O)NCCc3ccc(SC)cc3)c(C)n2n1 -74%
Cc1ccc(N(C)S(=O)(=O)c2nnc(NC(=O)CC(C)C)s2)cc1 -5.69%
CCOC(=O)Cc1ccc(NC(=O)Nc2cc3c(cc2N2CCCCC2)n(C)c(=O)n3C)cc1 -19.4%
CN(C)CCCC1(c2ccc(F)cc2)OCc2cc(C#N)ccc21 (configuration not stated) -49%
Cn1nc(C(=O)NCc2ccc(F)cc2)c2c1-c1ccccc1SC2 2.48%
CC1CCN(C(=O)CN2c3ccc(C(C)C)cc3-c3ccccc3S2(=O)=O)CC1 17.4%
Cc1cc(-c2ccccc2)n2nc(-c3cccc(Br)c3)cc2n1 3.32%
COc1ccc(/C(C)=C/C(=O)O)c(OC)c1 3.26%
Cc1ccc(-c2c(C(=O)NCc3ccc(F)cc3)oc(=O)c3ccccc23)cc1 -16.9%
CC(=O)c1cccc(NC(=O)c2oc(=O)c3ccccc3c2-c2ccccc2)c1 -3.58%
Cc1ccccc1NC(=O)Cn1c(=O)n(Cc2ccc3c(c2)OCO3)c(=O)c2ccc(C(=O)NC3CCCCC3)cc21 -20.7%

Source: PubChem BioAssay AID1508624 (National Center for Advancing Translational Sciences (NCATS), 2021)
